# Out of some 310,000 compounds screened, about 2,200 (0.71%) showed an effect of 50% or more. The effect is printed as a negative number. The list shows a part of the results.
# Target: human ether-à-go-go-related gene (hERG) potassium channel (human, UniProt Q12809)
# Test: primary screen, population patch clamp on CHO cells stably expressing hERG
# Sequence of human ether-à-go-go-related gene (hERG) potassium channel (Q12809 whole entry, looked up): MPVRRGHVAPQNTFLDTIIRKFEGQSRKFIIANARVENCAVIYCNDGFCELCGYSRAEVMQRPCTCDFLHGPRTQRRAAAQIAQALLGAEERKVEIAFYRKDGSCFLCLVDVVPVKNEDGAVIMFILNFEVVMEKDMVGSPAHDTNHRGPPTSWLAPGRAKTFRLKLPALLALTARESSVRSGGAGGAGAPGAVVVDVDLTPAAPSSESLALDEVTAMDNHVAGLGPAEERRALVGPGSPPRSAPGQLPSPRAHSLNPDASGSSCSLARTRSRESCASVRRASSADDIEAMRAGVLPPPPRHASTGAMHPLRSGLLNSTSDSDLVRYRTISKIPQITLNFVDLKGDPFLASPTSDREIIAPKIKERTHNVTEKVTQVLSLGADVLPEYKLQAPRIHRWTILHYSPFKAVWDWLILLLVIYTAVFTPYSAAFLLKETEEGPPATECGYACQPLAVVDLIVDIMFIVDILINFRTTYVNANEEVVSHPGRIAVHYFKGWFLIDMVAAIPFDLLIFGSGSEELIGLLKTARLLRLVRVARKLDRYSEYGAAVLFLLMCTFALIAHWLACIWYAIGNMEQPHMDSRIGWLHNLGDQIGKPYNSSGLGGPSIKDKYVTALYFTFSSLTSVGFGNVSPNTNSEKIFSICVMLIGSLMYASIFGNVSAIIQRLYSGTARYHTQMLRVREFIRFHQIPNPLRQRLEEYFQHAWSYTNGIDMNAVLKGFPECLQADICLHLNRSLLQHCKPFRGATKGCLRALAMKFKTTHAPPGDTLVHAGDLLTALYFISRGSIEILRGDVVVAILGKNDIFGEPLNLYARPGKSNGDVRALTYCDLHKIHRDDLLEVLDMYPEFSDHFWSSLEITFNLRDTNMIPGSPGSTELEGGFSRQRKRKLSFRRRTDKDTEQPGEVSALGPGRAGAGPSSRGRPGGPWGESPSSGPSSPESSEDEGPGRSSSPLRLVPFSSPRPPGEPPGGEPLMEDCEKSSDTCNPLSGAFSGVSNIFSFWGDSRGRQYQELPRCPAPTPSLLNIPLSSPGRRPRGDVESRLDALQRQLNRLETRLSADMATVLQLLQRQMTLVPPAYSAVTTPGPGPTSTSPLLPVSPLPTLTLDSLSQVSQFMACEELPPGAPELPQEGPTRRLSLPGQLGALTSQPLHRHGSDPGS
row,Structure (SMILES),"hERG current change (%, negative = inhibition) at 1uM"
1,O=C(Nc1cccc2nsnc12)c1ccc(-c2ccc(Br)cc2)o1,17.3%
2,O=C(c1n[nH]c2ccccc12)N1CCCCC1,8.84%
3,CCc1ccc(CNC(=O)C2CC(=O)N(C3CCCC3)C2)cc1 (stereo not drawn),11.6%
4,CC(C)C(NC(=O)/C(=C/c1ccco1)NC(=O)c1ccc(Br)o1)C(=O)O (stereo not drawn),12.7%
5,CCCN(CC1CC1)S(=O)(=O)c1ccc(S(N)(=O)=O)cc1,-1.2%
6,CN(C(=O)c1ccccc1Cl)c1ccccc1C(=O)NCc1ccccc1,6.8%
7,O=C(Nc1ccc(C(F)(F)F)cc1)c1csc(-c2ccncc2)n1,-2.94%
8,O=C(CN1CCN(c2ncc(C(F)(F)F)cc2Cl)CC1)NCCNc1ncc(C(F)(F)F)cc1Cl,18.1%
9,Cc1cc(NC(=O)CSc2nnc(NCc3ccco3)s2)no1,10.7%
10,CCOC(=O)/C(=N\Nc1ccccc1Cl)N1CCN(C)CC1,-5.92%
11,O=C(CN1C(=O)COc2ccc(Cl)cc21)NC1CC1,7.46%
12,CC1(C#CC[N+]2(C)CCCCC2)CCC2C(O1)c1ccccc1OC2(C)C.[I-] (stereo not drawn),16.2%
13,CC(Nc1ccc(F)cc1)=[N+](C)CCNS(=O)(=O)c1ccc(Cl)cc1.[I-],-45.1%
14,Cc1cccc(C(=O)NCc2nnc3c4ccccc4c(-c4ccccc4)nn23)c1,-6.83%
15,CCCN1CCN(C(=O)Cn2cnc3sc(C)c(S(=O)(=O)N4CCC(C)CC4)c3c2=O)CC1,11.8%
16,S=c1[nH]nc(COc2ccccc2)n1/N=C/c1ccccc1Br,15.1%
17,COc1ccc(NC(=O)C2C(c3ccccc3)C2(Cl)Cl)cc1 (stereo not drawn),12.5%
18,CC(=O)Nc1nc(C)cs1,7.8%
19,COc1ccc2c(C)cc(SCC(=O)Nc3nsc(-c4ccc(C)cc4)n3)nc2c1,1.13%
20,Cc1ccc(NCC(=O)Nc2cccc(F)c2)cc1S(=O)(=O)N1CCCCCC1,-1.81%
21,CN1CCN(CC(=O)Nc2ccc([N+](=O)[O-])cc2C(=O)c2ccccc2)CC1,-91.5%
22,COc1cccc(C2CC(=O)NC(SC)=C2C#N)c1 (stereo not drawn),7.86%
23,COc1ccc(C2/C(=C(/O)c3ccc4c(c3)CC(C)O4)C(=O)C(=O)N2Cc2cccnc2)cc1 (stereo not drawn),9.88%

row,Structure (SMILES),"hERG current change (%, negative = inhibition) at 1uM"
1,CC(NC(=O)COC(=O)c1cc(NS(=O)(=O)c2ccc(Cl)c([N+](=O)[O-])c2)ccc1O)C1CC2CCC1C2 (stereo not drawn),6.36%
2,O=C(NCc1cccs1)c1ccc(S(=O)(=O)N2CCOCC2)cc1,1.56%
3,Cc1ccc(S(=O)(=O)NN/C(=N/S(=O)(=O)c2ccccc2)c2ccccc2)cc1,7.15%
4,O=C1Nc2ccccc2C1(O)c1ccccc1O (stereo not drawn),13.7%
5,CC(C)(O[C@@H]1O[C@H](CO)[C@@H](O)[C@H](O)[C@H]1O)[C@@H]1CC=C(C(=O)O)CC1,10.4%
6,O=C1CCNCCN1[C@H](CO)c1ccccc1,10.9%
7,CC(C)C[C@H](NC(=O)Nc1cccc(Cl)c1)C(=O)O,4.92%
8,CCc1ccccc1NC(=O)NC1CC2CCC(C1)N2Cc1cccs1 (stereo not drawn),-1.25%
9,O=C(C1CCCCC1)N(Cc1nc2sc3c(c2c(=O)[nH]1)CCCC3)Cc1cccs1,12.1%
10,c1csc(CSc2nnc3sc4ccccc4n23)c1,-1.43%
11,O=C(CCc1nc2ccccc2s1)N1CCN(S(=O)(=O)c2cccs2)CC1,-10.3%
12,CC(C)(C)OC(=O)N1CC(O)CC1C(=O)OCC(=O)c1ccc(Cl)cc1 (stereo not drawn),-6.58%
13,COc1ccccc1NS(=O)(=O)c1ccc2oc(SC)nc2c1,7.14%
14,Cc1cc(C(F)(F)F)c2c(n1)sc1c(O)cc(=O)[nH]c12,2.02%
15,O=c1[nH]c(CCl)nc2cc(-c3ccc(Cl)cc3)sc12,7.07%
16,CCCCc1c(O)nc(SCC(=O)N2CCCCC2)[nH]c1=O,15.4%
17,O=C(COC(=O)c1ccc(Cl)nc1)Nc1cc(S(=O)(=O)N2CCCCC2)ccc1Cl,14.4%
18,N#Cc1cccc(NC(=O)CN2CCN(Cc3ccccc3)CC2)c1,-19.1%
19,COc1ccc2oc(-c3ccccc3)c(C(=O)N(C)C)c2c1,17.7%
20,CCCN(CCC)C1CC(=O)N(Cc2ccccc2)C1=O (stereo not drawn),19.9%
21,CNS(=O)(=O)c1cccc2nsnc12,4.59%
22,O=C(CS(=O)c1ccc(F)cc1)N1CCOCC1 (stereo not drawn),6.04%

# Source: paper PMC4336329 (PLoS ONE, 2015)
